In PubChem BioAssay AID463173 (ICCB-Longwood Screening Facility, Harvard Medical School, 2010):
About 1,700 (3.3%) of roughly 52,000 compounds were called active. No stated cut-off is given here; in the data, active means survival mostly below about 52% (no sharp cut-off); inactive means mostly above about 56%. The list shows a part of the results.

What follows are compounds tested on Wild type (assay: growth inhibition of S. aureus wild type versus tarO mutant, primary screen, teichoic acid synthesis inhibitors, RN4220, OD600 (AID 463173)). Details: S. aureus RN4220 wild type/DeltatarO growth, OD600, 18 h, active compounds read low, screened at 18.75 µg/mL (by protocol).
`O=S(=O)(c1ccc(F)cc1)N(Cc1nc(-c2ccc(Cl)cc2)no1)C1CCCCC1` was tested, and the survival was inactive: 84%.
`O=C(CCS(=O)(=O)c1cc(Br)cc2c1N(C(=O)C1CC1)CC2)NCc1ccccc1Cl` was tested, and the survival was inactive: 81%.
For `Cc1cc(C)c(C(N)=O)c(=S)[nH]1`, the survival was inactive: 94%.
With `Cc1cc(N2CCCC2)c2ccccc2n1` the survival was inactive: 121%.
With `COc1ccc(Br)cc1C(=O)Nc1ccc(-c2nc3cc(Cl)ccc3o2)cc1` the survival was inactive: 73%.
`Cc1c(NC(=O)c2cccc3c(Cl)cccc23)cccc1-c1nc2ccccc2o1` was tested, and the survival was inactive: 103%.
For `CCOC(=O)N1CCc2c(sc3c2c(=O)n(Cc2ccccc2)c(=O)n3CC(=O)Nc2ccc(C)c(C)c2)C1`, the survival was inactive: 84%.
`CCC(C(=O)Nc1cc(F)ccc1F)n1nc(-c2cc(C)ccc2C)ccc1=O` (stereo not drawn) was tested, and the survival was inactive: 75%.
With `COC(=O)C(C)n1nnc2sc(-c3ccccc3)cc2c1=O` (stereo not drawn) the survival was inactive: 88%.
With `Cc1ccc(NC(=O)CCC(=O)N2CCSc3ccccc32)cc1Cl` the survival was inactive: 87%.
`COC(=O)c1sccc1S(=O)(=O)N(CC(=O)Nc1c(C)cccc1C)c1ccc(C)c(C)c1` was tested, and the survival was inactive: 78%.
`COc1ccc2c(c1)c(=O)c(S(=O)(=O)c1ccc(C)cc1)cn2Cc1ccccc1C` was tested, and the survival was inactive: 92%.
With `Cc1c(Cl)cccc1NC(=O)Nc1nnc(N(C)Cc2ccccc2)s1` the survival was inactive: 93%.
For `c1ccc(C(c2ccccc2)N2CCN(Cc3nnnn3Cc3ccc4c(c3)OCO4)CC2)cc1`, the survival was inactive: 105%.
`CC(=O)c1ccc(NC(=O)Cn2cc(S(=O)(=O)Cc3ccccc3Cl)c3ccccc32)cc1` was tested, and the survival was inactive: 83%.
For `Cc1c(NC(=O)C(C)(C)Oc2ccc(Cl)cc2)cccc1-c1nc2ncccc2o1`, the survival was active: -3%.
For `CC1=C(C(=O)NCc2ccccc2C)C2(CCCCC2)OC1=O`, the survival was inactive: 88%.
In the case of `Cn1c(=O)c2c(nc(Oc3ccccc3)n2Cc2c(Cl)cccc2Cl)n(C)c1=O`, the survival is reported as inactive: 73%.
With `O=C(COc1ccccc1[N+](=O)[O-])Nc1cccc(-c2nc3ccccc3s2)c1` the survival was inactive: 82%.
With `COc1ccc(N(CC(=O)Nc2cc(C)ccc2C)S(=O)(=O)c2ccc(OC)c(OC)c2)cc1` the survival was inactive: 147%.
`O=C(N/N=C/c1ccncc1)c1ccccc1` was tested, and the survival was inactive: 115%.
For `CCN(CC)c1nc(C(F)(F)F)nc2c1nnn2Cc1ccccc1`, the survival was inactive: 100%.
For `CC(C)=NNC(=O)CNc1ccccc1Cl`, the survival was inactive: 102%.
`COCCCNC(=O)CSc1nc2cc3c(cc2c(=O)n1CCCC(=O)NCc1ccc(OC)cc1)OCO3` was tested, and the survival was inactive: 70%.
In the case of `O=C(Nc1ccc(F)cc1F)c1ccc2c(O)c(S(=O)(=O)c3ccc(Cl)cc3)c(=O)[nH]c2c1`, the survival is reported as inactive: 88%.
`CCOc1ccc(NC(=O)CN2C(=O)COc3ccc(S(=O)(=O)NC4CCCC4)cc32)cc1` was tested, and the survival was inactive: 72%.
In the case of `C(#Cc1ccccc1)CN1CCCCC1`, the survival is reported as inactive: 94%.
In the case of `CCc1ccc(C2c3c(oc4ccc(F)cc4c3=O)C(=O)N2c2nc(C)c(C(=O)OC)s2)cc1` (stereo not drawn), the survival is reported as inactive: 70%.
In the case of `O=C(/C=N/O)NCCN1CCCCC1`, the survival is reported as inactive: 109%.
With `O=C(COCc1cc(-c2ccc3c(c2)OCO3)on1)NCc1ccccc1Cl` the survival was inactive: 79%.
For `CCOc1ccc(C(=O)Nc2ccc(S(=O)(=O)Nc3nc(C)cc(C)n3)cc2)cc1OC`, the survival was inactive: 95%.
In the case of `COc1ccccc1OCC(=O)NCc1nc(-c2ccc(Cl)cc2)no1`, the survival is reported as inactive: 84%.
For `CC1=C(c2ccc(C)c(C)c2)S(=O)(=O)N(Cc2ccc(C(=O)NC(C)c3ccccc3)cc2)C1=O` (stereo not drawn), the survival was inactive: 70%.
For `Cc1ccccc1Cc1c(C)nc2nc(SCC(=O)NCCc3ccc(Cl)cc3)nn2c1C`, the survival was inactive: 68%.
With `O=C(COc1ccccc1)Nc1ccccc1OCc1cc(=O)n2ccccc2n1` the survival was inactive: 77%.
With `CCCCCCOc1ccc(C2C(=O)N(C3CCCCC3)CC(=O)N2CCCC)cc1` (stereo not drawn) the survival was inactive: 101%.
With `CCOc1cccc(C(=O)Nc2cc(-c3ccc(C)cc3)no2)c1` the survival was inactive: 92%.
`O=C(CN1C(=O)CCc2cc(S(=O)(=O)N3CCOCC3)ccc21)Nc1cccc(C(F)(F)F)c1` was tested, and the survival was inactive: 84%.
For `Cc1ccc2c(=O)cc(C(=O)Nc3sc4c(c3C(=O)NCc3ccccc3)CCCC4)oc2c1C`, the survival was inactive: 87%.
In the case of `CCCn1c(N2CCN(C(=O)N3CCCCC3)CC2)nc2ccccc21`, the survival is reported as inactive: 116%.
For `Cc1noc(Cn2c(=O)c3cc4c(cc3n(CC(=O)Nc3ccccc3Br)c2=O)OCO4)n1`, the survival was inactive: 127%.
In the case of `O=C(Nc1sc2c(c1C(=O)N1CCCCC1)CCCC2)c1ccccc1Cl`, the survival is reported as inactive: 75%.
With `COc1ccc(NC(=O)CNC(=O)Cn2c(C)cc3ccccc3c2=O)cc1OC` the survival was inactive: 78%.
In the case of `CN(C)c1ccc(CNC(=O)CCS(=O)(=O)c2ccc3c(c2)oc(=O)n3C)cc1`, the survival is reported as inactive: 105%.
For `CCCCN1C(C(=O)c2ccccc2)=C(OC(C)=O)c2ccccc2S1(=O)=O`, the survival was active: -2%.
For `CCCCN(CCCC)C1=C(C(=O)c2ccccc2)N(C)S(=O)(=O)c2ccccc21`, the survival was inactive: 70%.
For `COC(=O)c1cc2c(cc1N)OCCO2`, the survival was inactive: 96%.
`C=Cc1ccc(C=C)cc1` was tested, and the survival was inactive: 133%.
In the case of `CCCS(=O)(=O)N1CCCC(C(=O)NCCOC)C1` (stereo not drawn), the survival is reported as inactive: 66%.
With `Cc1cc(=O)n2nc(N3CCC(C(=O)NCc4ccc(F)cc4)CC3)sc2n1` the survival was inactive: 100%.
For `CCOc1ccc(NCc2cccn2-c2nnc(N3CCC(C(=O)NCCOC)CC3)s2)cc1`, the survival was inactive: 84%.
`C=C(C)Cn1c(=O)c2c(nc3n2CCN3c2ccc(F)cc2)n(C)c1=O` was tested, and the survival was inactive: 85%.
For `Cc1ccccc1Nc1cc(C(=O)NCc2cccs2)c2ccccc2n1`, the survival was inactive: 95%.
`COc1ccccc1/C=C/c1nc(C#N)c(NCCc2ccccc2)o1` was tested, and the survival was inactive: 71%.
In the case of `CCOc1ccc(-c2nc(Cn3ccn4nc(-c5ccc(OCC)c(Cl)c5)cc4c3=O)c(C)o2)cc1`, the survival is reported as inactive: 92%.
With `CCOc1ccc(N(CC)S(=O)(=O)N2CCCC(C(=O)Nc3cc(Cl)ccc3OC)C2)cc1` (stereo not drawn) the survival was inactive: 81%.
`COc1ccc(CNS(=O)(=O)c2ccc(-c3cnc(C4CC4)o3)cc2)cc1` was tested, and the survival was inactive: 92%.
With `COc1ccc(C)cc1N(C)C(=O)c1c2c(nc3ccccc13)C(=O)N(C1CCCCC1)C2` the survival was inactive: 79%.
